Measurements as given in the supplement of paper PMC4967469.
A lower IC50 marks a more sensitive line; fits outside the tested doses are given as limits. For AUC the same curve is integrated over the 256-fold range of doses and scaled to a fraction: 1 means no effect, lower means more sensitive. For part of these data: Where the top dose is marked as inferred, it was calculated from the reported fits. For part of these data: Drugs with an entry number were screened twice under separate entries, and the two screens often disagree.

How the values were obtained:
Experiment in all cases: Viability of human cancer cell lines after 72 h of drug (GDSC screen)
Thapsigargin = compound: C/C=C(/C)C(=O)O[C@H]1C(C)=C2[C@H]([C@@H]1OC(=O)CCCCCCC)[C@@](C)(OC(C)=O)C[C@H](OC(=O)CCC)[C@@]1(O)[C@H]2OC(=O)[C@@]1(C)O [Thapsigargin]; conditions: top dose 0.512 µM; top dose inferred
Protocol: (§1)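 Human cancer cell lines in 384-well plates, medium with 10% serum, drug for 72 h over a 256-fold dose range (nine 2-fold or five 4-fold steps up to the top dose). Adherent lines were fixed and stained with the nucleic acid dye Syto60, suspension lines read with resazurin; signal relative to control wells, capped at 0 and 100%. One two-parameter sigmoid per drug and line, fitted in a mixed model over all curves with the slope shared within a line.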

QL-X-138 = compound: C=CC(=O)Nc1cc(-n2c(=O)ccc3cnc4ccc(-c5cn[nH]c5)cc4c32)ccc1C [QL-X-138]; conditions: top dose 10.24 µM; top dose inferred
Protocol: as §1

GSK269962A = compound: CCn1c(-c2nonc2N)nc2cnc(Oc3cccc(NC(=O)c4ccc(OCCN5CCOCC5)cc4)c3)cc21 [GSK269962A]; conditions: top dose inferred
Protocol: as §1

MPS-1-IN-1 = compound: COc1cc(N2CCC(O)CC2)ccc1Nc1cc(Nc2ccccc2S(=O)(=O)C(C)C)c2cc[nH]c2n1 [MPS-1-IN-1]; conditions: top dose 20 µM; top dose inferred
Protocol: as §1

(5Z)-7-Oxozeaenol = compound: COc1cc(O)c2c(c1)/C=C/C[C@H](O)[C@H](O)C(=O)/C=C\C[C@H](C)OC2=O [(5Z)-7-Oxozeaenol]; conditions: top dose 10 µM; top dose inferred
Protocol: as §1

CP466722 = compound: COc1cc2ncnc(-n3nc(-c4ccccn4)nc3N)c2cc1OC [CP466722]; conditions: top dose 16 µM; top dose inferred
Protocol: as §1

Zibotentan = compound: COc1nc(C)cnc1NS(=O)(=O)c1cccnc1-c1ccc(-c2nnco2)cc1 [Zibotentan]; conditions: top dose 20 µM; top dose inferred
Protocol: as §1

ABT-888 = compound: C[C@]1(c2nc3c(C(N)=O)cccc3[nH]2)CCCN1 [ABT-888]; conditions: top dose 5 µM; top dose inferred
Protocol: as §1

CMK = compound: Cc1ccc(-c2c(C(=O)CCl)n(CCCO)c3ncnc(N)c23)cc1 [CMK]; conditions: top dose 4 µM; top dose inferred
Protocol: as §1

ABT-869 = compound: Cc1ccc(F)c(NC(=O)Nc2ccc(-c3cccc4[nH]nc(N)c34)cc2)c1 [ABT-869]; conditions: top dose 1.024 µM; top dose inferred
Protocol: as §1

CHIR-99021 = compound: Cc1cnc(-c2cnc(NCCNc3ccc(C#N)cn3)nc2-c2ccc(Cl)cc2Cl)[nH]1 [CHIR-99021]
Protocol: as §1

Cytarabine = compound: Nc1ccn([C@@H]2O[C@H](CO)[C@@H](O)[C@@H]2O)c(=O)n1 [Cytarabine]; conditions: top dose 2 µM
Protocol: as §1

KU-55933 = compound: O=c1cc(-c2cccc3c2Sc2ccccc2S3)oc(N2CCOCC2)c1 [KU-55933]; conditions: top dose 10 µM
Protocol: as §1

[1] = top dose 2.5 µM, screen: GDSC drug entry 127
[2] = top dose 5 µM, screen: GDSC drug entry 1192
[3] = top dose 2.56 µM, screen: GDSC drug entry 154
[4] = top dose 10 µM, screen: GDSC drug entry 1241, top dose inferred

| Cell Line | AUC (Thapsigargin) | IC50 (Thapsigargin) [nM] | AUC (QL-X-138) | IC50 (QL-X-138) [nM] | AUC (GSK269962A; [1]) | IC50 (GSK269962A; [1]) [nM] | AUC (GSK269962A; [2]) | IC50 (GSK269962A; [2]) [nM] | AUC (MPS-1-IN-1) | IC50 (MPS-1-IN-1) [nM] | AUC ((5Z)-7-Oxozeaenol) | IC50 ((5Z)-7-Oxozeaenol) [nM] | AUC (CP466722) | IC50 (CP466722) [nM] | AUC (Zibotentan) | IC50 (Zibotentan) [nM] | AUC (ABT-888) | IC50 (ABT-888) [nM] | AUC (CMK) | IC50 (CMK) [nM] | AUC (ABT-869) | IC50 (ABT-869) [nM] | AUC (CHIR-99021; [3]) | IC50 (CHIR-99021; [3]) [nM] | AUC (CHIR-99021; [4]) | IC50 (CHIR-99021; [4]) [nM] | AUC (Cytarabine) | IC50 (Cytarabine) [nM] | AUC (KU-55933) | IC50 (KU-55933) [nM] |
| --- | --- | --- | --- | --- | --- | --- | --- | --- | --- | --- | --- | --- | --- | --- | --- | --- | --- | --- | --- | --- | --- | --- | --- | --- | --- | --- | --- | --- | --- | --- |
| KS-1 (glioma, adherent) | 0.263 | 5.58 | 0.486 | 581 | 0.219 | 18.6 | 0.46 | 236 | 0.838 | 18700 | 0.556 | 924 | 0.691 | 3970 | 0.977 | > 20000 | 0.97 | > 5000 | 0.692 | 994 | 0.979 | > 1020 | 0.958 | > 2560 | 0.947 | > 10000 | 0.888 | > 2000 | 0.95 | > 10000 |
| KU812 (chronic myeloid leukaemia, suspension) | 0.168 | 3.54 | 0.619 | 1320 | 0.91 | > 2500 | 0.676 | 920 | 0.974 | > 20000 | 0.462 | 497 | 0.643 | 2390 | 0.986 | > 20000 | 0.978 | > 5000 | 0.873 | 3280 | 0.984 | > 1020 | 0.951 | > 2560 | 0.943 | > 10000 | 0.719 | 490 | 0.946 | > 10000 |
| KY821 (leukaemia, suspension) | 0.316 | 10.6 | 0.872 | 7690 | 0.989 | > 2500 | 0.99 | > 5000 | 0.919 | > 20000 | 0.732 | 2580 | 0.87 | 11800 | 0.987 | > 20000 | 0.989 | > 5000 | 0.835 | 2170 | 0.991 | > 1020 | 0.992 | > 2560 | 0.99 | > 10000 | 0.902 | > 2000 | 0.9 | > 10000 |
| L-428 (Hodgkin lymphoma, suspension) | 0.986 | > 512 | 0.888 | 9100 | 0.993 | > 2500 | 0.987 | > 5000 | 0.993 | > 20000 | 0.86 | 6820 | 0.778 | 5690 | 0.746 | 5680 | 0.992 | > 5000 | 0.936 | > 4000 | 0.991 | > 1020 | 0.992 | > 2560 | 0.991 | > 10000 | 0.905 | > 2000 | 0.958 | > 10000 |
| L-540 (Hodgkin lymphoma, suspension) | 0.618 | 65 | 0.742 | 2860 | 0.923 | > 2500 | 0.796 | 2050 | 0.905 | > 20000 | 0.721 | 2440 | 0.717 | 3790 | 0.988 | > 20000 | 0.987 | > 5000 | 0.942 | > 4000 | 0.99 | > 1020 | 0.985 | > 2560 | 0.965 | > 10000 | 0.868 | 1490 | 0.965 | > 10000 |
| LAMA-84 (chronic myeloid leukaemia, suspension) | 0.454 | 24 | 0.608 | 1270 | 0.921 | > 2500 | 0.959 | > 5000 | 0.912 | > 20000 | 0.905 | > 10000 | 0.586 | 1730 | 0.883 | > 20000 | 0.929 | > 5000 | 0.965 | > 4000 | 0.987 | > 1020 | 0.983 | > 2560 | 0.985 | > 10000 | 0.387 | 60.9 | 0.88 | > 10000 |
| LAN-6 (neuroblastoma, adherent) | 0.844 | 475 | 0.882 | > 10200 | 0.98 | > 2500 | 0.926 | > 5000 | 0.798 | 11600 | 0.728 | 3200 | 0.862 | > 16000 | 0.985 | > 20000 | 0.982 | > 5000 | 0.843 | 3660 | 0.947 | > 1020 | 0.985 | > 2560 | 0.93 | > 10000 | 0.88 | > 2000 | 0.985 | > 10000 |
| LB373-MEL-D (melanoma, adherent) | 0.476 | 27.5 | 0.968 | > 10200 | 0.987 | > 2500 | 0.989 | > 5000 | 0.951 | > 20000 | 0.684 | 2020 | 0.955 | > 16000 | 0.989 | > 20000 | 0.99 | > 5000 | 0.962 | > 4000 | 0.99 | > 1020 | 0.967 | > 2560 | 0.912 | > 10000 | 0.873 | 1850 | 0.99 | > 10000 |
